From paper PMC4336329 (PLoS ONE, 2015)
About 14,000 (4.5%) of roughly 310,000 compounds showed an effect of 50% or more. Effects have a minus sign here. The list shows a part of the results.

biological target: human ether-à-go-go-related gene (hERG) potassium channel (human, UniProt Q12809); test: primary screen, population patch clamp on CHO cells stably expressing hERG
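Note: peak tail current of the secondary pulse compared with the same well before compound.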

Chain of human ether-à-go-go-related gene (hERG) potassium channel (Q12809 whole entry, looked up): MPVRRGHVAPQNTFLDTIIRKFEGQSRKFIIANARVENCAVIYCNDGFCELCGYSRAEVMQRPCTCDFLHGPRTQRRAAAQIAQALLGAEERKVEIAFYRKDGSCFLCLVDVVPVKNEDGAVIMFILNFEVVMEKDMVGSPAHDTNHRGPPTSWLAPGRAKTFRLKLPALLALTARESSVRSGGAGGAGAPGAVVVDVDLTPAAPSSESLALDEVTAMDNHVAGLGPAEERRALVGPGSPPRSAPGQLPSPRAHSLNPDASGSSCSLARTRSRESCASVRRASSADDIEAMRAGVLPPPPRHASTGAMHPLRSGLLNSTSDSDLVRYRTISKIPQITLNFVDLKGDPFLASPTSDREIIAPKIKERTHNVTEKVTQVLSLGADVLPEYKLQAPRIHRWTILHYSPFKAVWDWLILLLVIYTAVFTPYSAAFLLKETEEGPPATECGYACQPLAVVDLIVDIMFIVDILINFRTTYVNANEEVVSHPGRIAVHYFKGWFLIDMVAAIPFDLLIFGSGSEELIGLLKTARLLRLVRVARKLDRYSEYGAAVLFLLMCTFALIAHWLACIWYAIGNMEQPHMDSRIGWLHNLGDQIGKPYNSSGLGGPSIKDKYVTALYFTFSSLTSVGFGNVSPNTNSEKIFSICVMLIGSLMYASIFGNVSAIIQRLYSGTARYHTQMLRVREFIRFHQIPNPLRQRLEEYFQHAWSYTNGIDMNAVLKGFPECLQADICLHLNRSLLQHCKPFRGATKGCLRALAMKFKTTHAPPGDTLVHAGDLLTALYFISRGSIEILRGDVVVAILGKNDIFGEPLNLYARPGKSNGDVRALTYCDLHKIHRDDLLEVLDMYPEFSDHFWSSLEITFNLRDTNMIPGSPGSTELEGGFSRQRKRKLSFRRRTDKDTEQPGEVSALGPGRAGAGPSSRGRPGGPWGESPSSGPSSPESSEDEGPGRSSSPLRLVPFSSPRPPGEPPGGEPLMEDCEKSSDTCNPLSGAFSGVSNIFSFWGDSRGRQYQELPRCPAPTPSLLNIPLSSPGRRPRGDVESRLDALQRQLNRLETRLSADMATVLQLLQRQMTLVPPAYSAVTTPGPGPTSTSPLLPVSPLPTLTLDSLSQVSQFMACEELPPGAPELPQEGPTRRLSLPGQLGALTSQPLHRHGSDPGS

Compound	hERG current change (%, negative = inhibition) at 10uM [%]
Nc1nnnn1NCc1cccc(OCc2ccccc2)c1	0.809
O=C(NCCc1ccccc1)c1cnc2ccccc2n1	-9.16
O=C(COc1ccccc1Cl)OCC(=O)N1CCN(S(=O)(=O)c2ccccc2)CC1	-12.8
Cc1ccc2c(CN3CCN(CCO)CC3)cc(=O)oc2c1C	-15.5
CCN(CC)C(C)C(=O)Nc1c2c(cc3c1CCC3)CCC2.Cl (stereo not drawn)	-2.41
O=C(c1cc(-c2ccc(Br)cc2)nc2ccccc12)N1CCN(c2ccccc2O)CC1	1.51
CCOC(=O)COc1c(/C=N\OC)cc(Cl)cc1OC	0.872
COc1ccccc1C(O)P(=O)(OC1CCCCC1)OC1CCCCC1 (stereo not drawn)	8.64
COC(=O)c1ccc(C(=O)NC2CC(C)(C)Cc3c2cnn3-c2ccc(F)cc2)nc1 (stereo not drawn)	-23.4
Cc1cc(N2CCCC2)ccc1NC(=O)COc1cccc(C(F)(F)F)c1	24.1
Cc1nc2nc(-c3ccc(F)cc3)cn2nc1C	7.58
CCOC(=O)Cc1nnc(NC(=O)C23CC4CC(CC(C4)C2)C3)s1	8.5
CCOc1cccc(C(=O)Nc2ccccc2C(=O)N2CCN(C)CC2)c1	-4.1
CCO[C@H]1OC(C(N)=O)=C[C@@H](c2ccc(Br)cc2)[C@@H]1CCCO	-25.1
O=C(C[n+]1cccc(Br)c1)c1cccs1.[Br-]	9.29
CC(C)N(Cc1nc(-c2ccc(Cl)cc2)no1)C(=O)CCC1CCCC1	-7.81
Cc1cc(C(=O)C(=O)O)c(C)n1-c1ccc(Cl)cc1	-43.4
COc1ccc(C(=O)NNC(=O)CCc2ccccc2OC)cc1	7.71
Cc1nn(Cc2ccccc2)c(C)c1/C=N/NC(=O)c1ccncc1	-46.4
COc1ccccc1C1(CC(=O)O)CCOC(C)(C)C1 (stereo not drawn)	-3.35
COc1cccc(NC(=O)CNC(C)CCC(C)C)c1.Cl (stereo not drawn)	-6.31
COc1ccc(C2Nc3ccccc3C(=O)N2c2ccccc2)cc1CSc1ccccn1 (stereo not drawn)	6.48
Cc1cc(-c2cc(C(=O)Nc3ccccc3)on2)nc(NC2CCCC2)n1	-3.16

Compound	hERG current change (%, negative = inhibition) at 10uM [%]
Cn1c(=O)c2c(nc(NCCCN3CCOCC3)n2Cc2ccc(Cl)cc2)n(C)c1=O	-20.8
Cc1ccc(NC2CC(C)NC(=S)N2)cc1 (stereo not drawn)	1.24
CCOc1ccc(C(=O)Nc2nnc(S(=O)(=O)Nc3ccccc3C)s2)cc1	18.4
CCn1c(COc2cccc(C)c2)nnc1SCC(=O)CC(=O)Nc1ccccc1OC	-15.6
Cc1ccsc1/C=N/NC(=O)CN1CCN(S(=O)(=O)c2ccc(Br)cc2)CC1	-41.7
O=C(CNC(=O)c1ccc(Br)o1)OCC(=O)c1cccc([N+](=O)[O-])c1	-22.3
CC(C)OCCCNC(=O)CCc1nc(-c2ccccc2)no1	15.8
COc1cc(C2=NOC(C(=O)Nc3cc(C)on3)C2)cc(OC)c1OC (stereo not drawn)	1.34
CC(C)OCCCNC(=O)C1CC(=O)N(CCc2ccccc2)C1 (stereo not drawn)	20
O=C(c1ccccc1)N1N=C(C(F)(F)F)CC1(O)c1ccccc1 (stereo not drawn)	10.6
CS(=O)(=O)c1ccc(CNC(=O)C2(C(F)(F)F)C/C(=C/CCO)CCCO2)cc1 (stereo not drawn)	-0.92
CCOc1ccc(NCC(=O)N/N=C/C=C/c2ccccc2)cc1	-7.47
CC(=O)c1cccc(CN2CCC(n3nccc3NC(=O)CCCc3ccccc3)CC2)c1	-37.8
CC1=CC(C)(C)N(C(=O)CSc2ncn[nH]2)c2ccc(C)cc21	-4.26
Cn1c(SCCN2CCCC2)nnc1C1CCN(S(=O)(=O)c2cccc(F)c2)CC1	-9.81
COc1ccc(-c2onc(C)c2C)cc1S(=O)(=O)NCCc1ccco1	-41.8
COc1ccc(-c2cn[nH]c2-c2ccc(OCc3ccccc3)cc2O)cc1	-0.98
CC(Oc1ccccc1F)C(=O)NNC(=O)c1cccc(S(=O)(=O)N2CCN(C)CC2)c1 (stereo not drawn)	10.3
O=C(COc1ccc(Br)cc1)Nc1ccccc1N1CCCC1	-2.87
COc1cccc(CN(C)C(=O)c2ccc3nccnc3c2)c1	-6.89
Cc1ccc(Oc2cc(C#N)c(C#N)cc2-n2nnc3ccccc32)cc1C	4.03
Cc1cc(NC(=O)CCl)on1	44.3
